Assay results taken from the supplement of paper PMC4967469.
A lower IC50 marks a more sensitive line; where the fit passes the top or lowest dose, that dose stands as a limit. AUC is the area under the same curve over the 256-fold range up to the top dose, as a fraction; values near 1 show little effect. For part of these data: A top dose marked as inferred was calculated from the reported fits. For part of these data: An entry number marks a drug with two screens in the source, which often give different values.

Legend:
Assay in all cases: Viability of human cancer cell lines after 72 h of drug (GDSC screen)
Afatinib = compound: CN(C)C/C=C/C(=O)Nc1cc2c(Nc3ccc(F)c(Cl)c3)ncnc2cc1O[C@H]1CCOC1 [Afatinib]
Description: (§1)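 Human cancer cell lines in 384-well plates, medium with 10% serum, drug for 72 h over a 256-fold dose range (nine 2-fold or five 4-fold steps up to the top dose). Adherent lines were fixed and stained with the nucleic acid dye Syto60, suspension lines read with resazurin; signal relative to control wells, capped at 0 and 100%. One two-parameter sigmoid per drug and line, fitted in a mixed model over all curves with the slope shared within a line.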

SNX-2112 = compound: CC1(C)CC(=O)c2c(C(F)(F)F)nn(-c3ccc(C(N)=O)c(N[C@H]4CC[C@H](O)CC4)c3)c2C1 [SNX-2112]; conditions: top dose 2.56 µM
Description: as §1

PF-562271 = compound: CN(c1ncccc1CNc1nc(Nc2ccc3c(c2)CC(=O)N3)ncc1C(F)(F)F)S(C)(=O)=O [PF-562271]; conditions: top dose 2.56 µM; top dose inferred
Description: as §1

XMD13-2 = compound: O=C(NC1CC1)c1cccc(-c2ccc3c(NC(=O)C4CC4)n[nH]c3c2)c1 [XMD13-2]; conditions: top dose 10.24 µM; top dose inferred
Description: as §1

[1] = top dose 10 µM, screen: GDSC drug entry 1377, top dose inferred
[2] = top dose 0.5 µM, screen: GDSC drug entry 1032

| Cell Line | AUC (Afatinib; [1]) | IC50 (Afatinib; [1]) | AUC (SNX-2112) | IC50 (SNX-2112) | AUC (PF-562271) | IC50 (PF-562271) | AUC (XMD13-2) | IC50 (XMD13-2) | AUC (Afatinib; [2]) | IC50 (Afatinib; [2]) |
| --- | --- | --- | --- | --- | --- | --- | --- | --- | --- | --- |
| HEL (acute myeloid leukaemia, semi-adherent) | 0.984 | > 10 µM | 0.36 | 0.0706 µM | 0.964 | > 2.56 µM | 0.875 | 7.23 µM |  |  |
| HLE (liver, adherent) | 0.987 | > 10 µM | 0.376 | 0.0744 µM | 0.943 | > 2.56 µM | 0.989 | > 10.2 µM |  |  |
| HO-1-N-1 (head and neck, adherent) | 0.617 | 1.27 µM | 0.744 | 0.746 µM | 0.897 | > 2.56 µM | 0.911 | > 10.2 µM |  |  |
| HPAF-II (pancreas, adherent) | 0.901 | > 10 µM | 0.622 | 0.384 µM | 0.979 | > 2.56 µM | 0.901 | > 10.2 µM |  |  |
| HSC-3 (head and neck, adherent) | 0.22 | 0.111 µM | 0.478 | 0.14 µM | 0.911 | > 2.56 µM | 0.979 | > 10.2 µM |  |  |
| HT-144 (melanoma, adherent) | 0.968 | > 10 µM | 0.969 | > 2.56 µM | 0.869 | > 2.56 µM | 0.984 | > 10.2 µM |  |  |
| HTC-C3 (thyroid, adherent) | 0.947 | > 10 µM | 0.794 | 1.34 µM | 0.886 | > 2.56 µM | 0.955 | > 10.2 µM |  |  |
| HeLa (cervix, adherent) | 0.987 | > 10 µM | 0.874 | 2.29 µM | 0.948 | > 2.56 µM | 0.942 | > 10.2 µM | 0.989 | > 0.5 µM |
| Hs-445 (Hodgkin lymphoma, suspension) | 0.985 | > 10 µM | 0.276 | 0.0392 µM | 0.963 | > 2.56 µM | 0.847 | 6.71 µM |  |  |
| Hs-578-T (breast, adherent) | 0.981 | > 10 µM | 0.963 | > 2.56 µM | 0.987 | > 2.56 µM | 0.985 | > 10.2 µM | 0.985 | > 0.5 µM |
| IST-MES1 (mesothelioma, adherent) | 0.974 | > 10 µM | 0.916 | > 2.56 µM | 0.962 | > 2.56 µM | 0.956 | > 10.2 µM |  |  |
| J82 (bladder, adherent) | 0.966 | > 10 µM | 0.912 | > 2.56 µM | 0.92 | > 2.56 µM | 0.977 | > 10.2 µM |  |  |
| JAR (urogenital system, adherent) | 0.963 | > 10 µM | 0.811 | 1.33 µM | 0.982 | > 2.56 µM | 0.927 | > 10.2 µM |  |  |
| KALS-1 (glioma, adherent) | 0.96 | > 10 µM | 0.598 | 0.328 µM | 0.936 | > 2.56 µM | 0.81 | 8.03 µM |  |  |
| KG-1 (acute myeloid leukaemia, suspension) | 0.973 | > 10 µM | 0.445 | 0.115 µM | 0.958 | > 2.56 µM | 0.715 | 2.39 µM |  |  |
| KOSC-2 (head and neck, adherent) | 0.814 | 5.77 µM | 0.942 | > 2.56 µM | 0.816 | 1.5 µM | 0.974 | > 10.2 µM |  |  |
| KP-4 (pancreas, adherent) | 0.986 | > 10 µM | 0.681 | 0.501 µM | 0.887 | > 2.56 µM | 0.855 | 7.67 µM |  |  |
| KYSE-270 (oesophagus, adherent) | 0.883 | 7.98 µM | 0.393 | 0.0853 µM | 0.801 | 1.04 µM | 0.969 | > 10.2 µM |  |  |
| L-1236 (Hodgkin lymphoma, suspension) | 0.992 | > 10 µM | 0.34 | 0.0624 µM | 0.969 | > 2.56 µM | 0.981 | > 10.2 µM | 0.992 | > 0.5 µM |
| LB996-RCC (kidney, adherent) | 0.783 | 4.96 µM | 0.576 | 0.267 µM | 0.962 | > 2.56 µM | 0.981 | > 10.2 µM |  |  |
| LC-2-ad (lung adenocarcinoma, adherent) | 0.964 | > 10 µM | 0.548 | 0.217 µM | 0.854 | 2.09 µM | 0.84 | 7.34 µM |  |  |
| LN-229 (glioma, adherent) | 0.952 | > 10 µM | 0.82 | 1.47 µM | 0.939 | > 2.56 µM | 0.985 | > 10.2 µM | 0.966 | > 0.5 µM |
| LNCaP-Clone-FGC (prostate, adherent) | 0.976 | > 10 µM | 0.617 | 0.353 µM | 0.962 | > 2.56 µM | 0.888 | > 10.2 µM |  |  |
| LOXIMVI (melanoma, semi-adherent) | 0.943 | > 10 µM | 0.446 | 0.116 µM | 0.963 | > 2.56 µM | 0.971 | > 10.2 µM |  |  |
| LS-411N (large intestine, adherent) | 0.973 | > 10 µM | 0.321 | 0.045 µM | 0.948 | > 2.56 µM | 0.941 | > 10.2 µM | 0.955 | > 0.5 µM |
| LU-99A (large cell lung carcinoma, adherent) | 0.986 | > 10 µM | 0.701 | 0.586 µM | 0.96 | > 2.56 µM | 0.979 | > 10.2 µM |  |  |
| MDA-MB-157 (breast, adherent) | 0.967 | > 10 µM | 0.983 | > 2.56 µM | 0.987 | > 2.56 µM | 0.979 | > 10.2 µM |  |  |
| MDA-MB-175-VII (breast, adherent) | 0.394 | 0.309 µM | 0.675 | 0.52 µM | 0.944 | > 2.56 µM | 0.983 | > 10.2 µM | 0.55 | 0.0435 µM |
| MDA-MB-436 (breast, adherent) | 0.926 | > 10 µM | 0.835 | 2.33 µM | 0.971 | > 2.56 µM | 0.971 | > 10.2 µM | 0.97 | > 0.5 µM |
